Hit rate of the full screen: of about 420,000 compounds, about 50,000 (12%) were called active. The shares of active, inactive and inconclusive entries below differ from those in the screen. Calls come from the whole dose curve; as a rule, active = well fitted inhibition curve with a large enough effect; inconclusive = small, poorly fitted or top-dose-only effect; inactive = flat fitted curve, though single readings scatter. Potencies of inconclusive entries are left out as doubtful fits.
Assay: qHTS for Inhibitors of human tyrosyl-DNA phosphodiesterase 1 (TDP1): qHTS in cells in presence of CPT; note: nearly all actives have a fitted effect of over 55% in size
Conditions: chicken DT40 Tdp1-/-;hTDP1 cells + 20 nM CPT, ATP luminescence, 48 h; activity change, negative = growth inhibition: at 46.2 µM (top of the series) unless noted
Outline: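 Chicken DT40 Tdp1-/- cells complemented with human TDP1, 400 cells/well, exposed to compounds plus 20 nM camptothecin for at least 48 h at 37 C; viability read as ATP content by CellTiter-Glo luminescence.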
% is set by controls: 0 for no effect and ±100 for the full control effect; potency is the fitted concentration of half-maximal effect; tags give direction and shape of the fitted curve.

Row | SMILES | Potency | activity change, negative = growth inhibition
1 | Cc1c(NC(=O)COc2c(F)c(F)c(F)c(F)c2F)c(=O)n(-c2ccccc2)n1C | inactive | –
2 | COc1cccc(CN(c2ccccc2C(=O)O)S(=O)(=O)c2ccc(C)cc2)c1 | inactive | –
3 | Clc1cccc(CSc2nncn3c2cc2sccc23)c1 | inconclusive [inhibitor, single point] | –
4 | CN(C)c1ccc(N=Cc2nc(-c3ccccc3)oc2OC(=O)c2ccccc2)cc1 | active: 18.4 µM | –
5 | COc1ccccc1NC(=O)COc1ccc(C(=O)OCC(=O)NC(C)(C)C)cc1OC | inconclusive [inhibitor, single point] | –
6 | Nc1nc(=S)[nH]c2n[nH]nc12 | active: 4.47 µM | –
7 | CCc1ccccc1NC(=O)Cn1ccn(-c2cc(C)cc(C)c2)c(=O)c1=O | inactive | –
8 | O=C(Nc1cccc(NC(=O)c2ccccc2Cl)c1)c1ccc(F)cc1 | inconclusive [inhibitor, single point] | –
9 | COc1cccc(-c2nn(C)c3sc(C(=O)NCc4ccccn4)cc23)c1 | inconclusive [inhibitor, single point] | –
10 | CCC1CCCCN1C(=O)/C=C/c1ccc2c(c1)OCO2 (stereo unspecified) | inactive | –
11 | COc1ccc(F)cc1-c1cc(C(=O)Nc2ccc(NC(C)=O)cc2)[nH]n1 | inconclusive [inhibitor, single point] | –
12 | C=CCN(CC=C)Cc1cc(=O)oc2cc(OC)ccc12 | inconclusive [inhibitor, single point] | –
13 | Cc1ccc(C)c(NC(=O)c2cc(S(=O)(=O)N3CCCCC3)ccc2N2CCOCC2)c1 | inconclusive [inhibitor, single point] | –
14 | C=C(C)COc1ccc(-c2[nH]ncc2-c2ccccc2OC)c(O)c1 | active: 25.9 µM | –
15 | CC12CCC3C(CC3(C)C)C(C)(CCC1=O)O2 (stereo unspecified) | inactive | –
16 | O=C(N/N=C/c1cc2ccccc2nc1Cl)/C(=C/c1cccs1)NC(=O)c1ccccc1 | active: 23.1 µM | –
17 | CCn1c(=NC(=O)c2ccc3c(c2)OCCO3)sc2c(C)ccc(OC)c21 | inconclusive [inhibitor, single point] | –
18 | O=c1[nH]cnc2c1C(c1ccccc1[N+](=O)[O-])c1c(nc[nH]c1=O)O2 | inactive | –
19 | C/C(=N\NC(=O)Cc1c(C)[nH][nH]c1=O)c1ccc(Cl)c(Cl)c1 | inconclusive [inhibitor, full curve] | –
20 | OC(c1ccc(Cl)cc1)c1ncc(-c2ccc(Oc3ccccc3)cc2)[nH]1 (stereo unspecified) | active: 20.6 µM | –
21 | CCOC(=O)C1(C)C=C(Nc2ccc(Br)cc2)C(=O)N1c1ccccc1 (stereo unspecified) | inconclusive [inhibitor, single point] | –
22 | CC(=O)N1CCC(C(=O)N2c3ccccc3N=C(c3ccc(C(F)(F)F)cc3)C2C(=O)NC2CCCC2)CC1 (stereo unspecified) | inconclusive [inhibitor, single point] | –
23 | COc1ccccc1CNC(=O)c1ccc2nc(N3CCOCC3)sc2c1 | inactive | –

Row | SMILES | Potency | activity change, negative = growth inhibition
24 | CCN(CC)c1ccc(NC(=O)/C=C/c2cc(Br)ccc2OC)cc1 | inconclusive [inhibitor, single point] | –
25 | Cn1c(SCc2n[nH]c(=S)n2-c2ccccc2)nnc1-c1ccccc1 | inactive | –
26 | CN(c1cccc(NC(=O)c2ccc(CN3CCc4ccccc4C3)cc2)c1)S(C)(=O)=O | inconclusive [inhibitor, single point] | –
27 | COc1ccc(C(CCN2CCOCC2)c2c(OC)cc(OC)c3c(-c4ccccc4)cc(=O)oc23)cc1 (stereo unspecified) | active: 6.51 µM | –
28 | COc1ccc(C(=O)CSc2nc3ccc([N+](=O)[O-])cc3[nH]2)cc1 | inconclusive [inhibitor, single point] | –
29 | CCN(CC)CCN(C(=O)CCS(=O)(=O)c1ccccc1)c1nc2c(C)cc(C)cc2s1 | active: 16.4 µM | –
30 | CC(=O)N1c2c(cc(Br)cc2S(=O)(=O)N2CCN(C(=O)c3ccco3)CC2)CC1C (stereo unspecified) | active: 20.6 µM | –
31 | Cc1ccc(C)c2[nH]c(=O)c(CN(Cc3ccco3)S(=O)(=O)c3ccc4c(c3)OCCO4)cc12 | inconclusive [inhibitor, single point] | –
32 | CSc1ccc(CCNC(=O)C2CCCN(c3ncnc4c3nc3n4CCCCC3)C2)cc1 (stereo unspecified) | inconclusive [inhibitor, single point] | –
33 | CCc1ccc(N(C(=O)CCC(=O)Nc2cc(C)on2)C(C(=O)NC(C)(C)C)c2ccc(OC)cc2)cc1 (stereo unspecified) | inconclusive [inhibitor, single point] | –
34 | Cc1nn(-c2ccccc2)nc1C(=O)Oc1cc(C(F)(F)F)nn1-c1ccccc1 | inactive | –
35 | CN(CC(=O)Nc1sccc1C#N)Cc1ccccc1 | – | inconclusive: -30.3% [inhibitor]
36 | CCN(c1ccccc1)C(CNS(=O)(=O)c1ccccc1)c1ccccc1 (stereo unspecified) | active: 18.4 µM | –
37 | COc1ccc2c(CNCc3ccc(C)o3)c(C(=O)O)n(Cc3ccccc3C)c2c1 | active: 7.31 µM | –
38 | COc1ccc(C2C3=C(CC(C)(C)CC3=O)Nc3c2c(=O)[nH]c(=O)n3Cc2ccccc2)cc1OC (stereo unspecified) | inconclusive [inhibitor, partial curve] | –
39 | CCOc1ccc2oc(C(=O)OCC(=O)N(CC(C)C)c3c(N)n(Cc4ccccc4)c(=O)[nH]c3=O)c(C)c2c1 | inconclusive [inhibitor, single point] | –
40 | CCN(C(=O)C(=O)Nc1ccc2nc3n(c(=O)c2c1)CCCCC3)c1ccc(F)cc1 | inactive | –
41 | COc1ccc(CCNC(=O)Cc2c(C)c3c(cc(C)c4c(C)coc43)oc2=O)cc1OC | active: 18.4 µM | –
42 | NCCCn1c(C(=O)c2cc(Cl)c(N)c(Cl)c2)c2ccc([N+](=O)[O-])cc2[n+]1[O-] | active: 0.651 µM | –
43 | COc1cc([N+](=O)[O-])cc(/C=N/NC(=O)c2ccc(C)nc2)c1O | active: 5.17 µM | –
44 | COc1ccc(CC(=O)NC2CC(=O)N(c3cccc(F)c3)C2)cc1 (stereo unspecified) | inactive | –
45 | Cc1ccc(-c2nnc(Nc3ccc(Br)cc3)c3ccccc23)cc1S(=O)(=O)N1CCN(C)CC1 | active: 11.6 µM | –
46 | Cc1nn(C(C)C(=O)NC2CCCCC2)c(=O)c2c1sc1ccccc12 (stereo unspecified) | inconclusive [inhibitor, single point] | –
